In PubChem BioAssay AID686978 (National Center for Advancing Translational Sciences (NCATS), 2013):
Where “and” joins values, the source holds several entries; their conditions need not be identical. Identical values can stand only once. In all, about 420,000 compounds went through this assay and about 64,000 (15%) were called active. Inconclusive means that the source gave no clear call. Such entries were picked first, then a sample of the others. Calls follow the shape of the dose curve; as a rule, active = well fitted inhibition curve with a large enough effect; inconclusive = small, poorly fitted or top-dose-only effect; inactive = flat fitted curve, though single readings scatter. Where the call is inconclusive, the potency comes from a doubtful curve fit.
% is scaled to controls: 0 for no effect and ±100 for the full control effect; potency is read from the fitted curve at half-maximal effect; tags tell the direction and shape of the fitted curve.

Assay: qHTS for Inhibitors of human tyrosyl-DNA phosphodiesterase 1 (TDP1): qHTS in cells in absence of CPT; also: nearly all actives have a fitted effect of over 55% in size
Conditions: DT40 Tdp1-/- hTDP1 cells, no CPT, ATP luminescence, 48 h; activity change, negative = growth inhibition: at 46.2 µM (top of the series) unless noted
Outline: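 No-CPT arm: Tdp1-/-;hTDP1 DT40 cells (400/well) plus compounds, incubated ≥48 hr at 37 °C. Readout CellTiter-Glo luminescence.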
In the case of COc1ccc(C(=O)Nc2ccc(-c3nnc4n3CCCCC4)cc2)cc1OC, the Potency is reported as active: 13 µM.
With COc1ccc2[nH]c(=O)c(CN(Cc3cccs3)S(=O)(=O)c3cccc4nsnc34)cc2c1 the Potency was active: 10.3 µM.
With COc1ccc2cc(C(=O)C3CCCN(C(=O)CCc4ccccn4)C3)ccc2c1 (stereo not given) the Potency was inconclusive: 18.4 µM [inhibitor, single point].
In the case of FC(F)(F)c1cccc(NC(=S)N2CCN(c3cccc(C(F)(F)F)c3)CC2)c1, the Potency is reported as active: 14.6 µM.
For O=C1CCCN1CCCNc1ncnc2sccc12, the “activity change, negative = growth inhibition” value was inactive: -13.8%.
For CCC(=O)N1CCN(c2ccccc2NC(=O)c2ccc(OC)c(Cl)c2)CC1, the activity change, negative = growth inhibition was inconclusive: -33.9% [inhibitor].
For Cc1nn(CCCC(=O)N2CCN(c3ccc(F)cc3)CC2)c(C)c1[N+](=O)[O-], the Potency was active: 20.6 µM.
With COCC(=O)Nc1ccc(N2CCOCC2)c(S(=O)(=O)Nc2ccc(OC)cc2)c1 the Potency was inconclusive: 29.1 µM [inhibitor, partial curve, poor fit].
For COc1ccc(C2C(C#N)=C(N)N(c3ccccc3)C3=C2C(=O)CCC3)cc1Cn1cc([N+](=O)[O-])cn1 (stereo not given), the Potency was inconclusive: 25.9 µM [inhibitor, single point].
With COc1ccc(S(=O)(=O)N2CCCCC2)cc1NC(=O)c1ccc(OC)c(OC)c1 the “activity change, negative = growth inhibition” value was inactive: -16.7%.
With O=C(Nc1ccc(N2CCOCC2)cc1)c1ccc(Br)o1 the “activity change, negative = growth inhibition” value was inactive: -23.1%.
In the case of Cc1cc(C)nc(/N=C(\N)Nc2ccc(S(=O)(=O)O)cc2)n1, the “activity change, negative = growth inhibition” value is reported as inactive: 7.5%.
In the case of O=C(C[n+]1cccc2cccc(O)c21)c1ccc(Cl)cc1, the Potency is reported as inconclusive: 35.5 µM [inhibitor, single point].
For COc1cc(S(=O)(=O)Nc2ccc3cn[nH]c3c2)ccc1Cl, the Potency was inconclusive: 23.1 µM [inhibitor, single point].
With Cc1ccc(N2C(=O)c3oc4ccccc4c(=O)c3C2c2cccc(O)c2)nc1 (stereo not given) the Potency was inconclusive: 23.1 µM [inhibitor, partial curve].
With CC(C)c1nc2ccc(C(=O)NC(C)c3ccccc3)cc2o1 (stereo not given) the activity change, negative = growth inhibition was inconclusive: -31.3% [inhibitor].
With COc1ccc(-c2cc(=O)oc3cc(OCC(=O)N[C@@H](Cc4c[nH]c5ccccc45)C(=O)O)ccc23)cc1 the “activity change, negative = growth inhibition” value was inactive: 0.178%.
For CN(C)c1ccc(/C=N/NC(=O)c2ccc3c(c2)OCO3)cc1, the “activity change, negative = growth inhibition” value was inactive: -7.05%.
In the case of CC(=O)C1=C(C)N(c2ccccc2)C(=O)C1(NS(=O)(=O)c1ccc(N)cc1)C(F)(F)F (stereo not given), the “activity change, negative = growth inhibition” value is reported as inactive: -5.44%.
With COc1cc(SC)ccc1C(=O)Nc1cccc(C)n1 the Potency was active: 5.8 µM.
For C/C(=C\C(=O)c1ccc(Br)cc1)N1CCCCC1, the “activity change, negative = growth inhibition” value was inactive: -24.9%.
In the case of NC(=O)COC(=O)CNC(=O)c1cc(Cl)cc([N+](=O)[O-])c1, the “activity change, negative = growth inhibition” value is reported as inactive: 17.7%.
With COC(=O)c1ccc(COc2ccc(C(C)(C)C)cc2)o1 the Potency was inconclusive: 29.1 µM [inhibitor, single point].
In the case of Cc1ccc(C)c(NC(=O)CSc2nnc(CCCCCNC(=O)OC(C)(C)C)o2)c1, the Potency is reported as inconclusive: 20.6 µM [inhibitor, partial curve, poor fit].
In the case of Cc1cc(I)ccc1Nc1nc(NCCN2CCOCC2)nc(N2CCOCC2)n1, the Potency is reported as active: 5.62 µM.
In the case of Cc1ccc2c(c1C)NC(=O)C21N2CCCC2C(C(=O)c2ccc3ccccc3c2)C12C(=O)Nc1ccccc12 (stereo not given), the Potency is reported as active: 11.6 µM.
In the case of COc1ccc(OC)c(NC(=O)c2ccccc2N(Cc2ccccc2)S(C)(=O)=O)c1, the Potency is reported as inconclusive: 20.6 µM [inhibitor, single point].
With O=C(c1cccc(Cl)c1)N1CCC(c2nc3ccccc3[nH]2)CC1 the Potency was inconclusive: 29.1 µM [inhibitor, single point].
For Clc1ccc(-c2cc(C3CCNCC3)[nH]n2)cc1, the Potency was active: 25.9 µM.
In the case of COc1cccc(/C=C/C(=O)Nc2ccc3nc(N4CCN(C)CC4)cc(C)c3c2)c1OC, the Potency is reported as active: 5.17 µM.
With Cc1ccc(O)c(NC(=O)c2cc3nc4c(c(C(F)(F)F)n3n2)CCc2ccccc2-4)c1 the Potency was active: 23.1 µM.
In the case of O=S1(=O)CCOCCCN1Cc1ccccc1F, the Potency is reported as “inactive and inconclusive: 35.5 µM [inhibitor, single point]”.
In the case of CC(=O)c1ccc(N2CCN(S(=O)(=O)c3ccc4c(c3)C(C)(C)C(=O)N4)CC2)cc1, the Potency is reported as inconclusive: 16.4 µM [inhibitor, single point].
For Oc1ccccc1-c1nc(/C=C/c2ccc(F)cc2)nn1-c1ccccc1, the Potency was inconclusive: 18.4 µM [inhibitor, single point].
For COc1ccccc1C(=O)NNC(=O)C(=O)NC1CCCCC1, the Potency was inconclusive: 29.1 µM [inhibitor, single point].
With CSc1nc(C)cc(-n2cc(F)c(=O)[nH]c2=O)n1 the Potency was inconclusive: 29.1 µM [inhibitor, single point].
For CC1CCC(NC(=O)C2CCC(CNS(=O)(=O)c3cccc4nsnc34)CC2)CC1 (stereo not given), the Potency was inconclusive: 23.1 µM [inhibitor, single point].
With N#Cc1ccc(Oc2ccc(NC(=O)C3CC=CCC3C(=O)O)cc2)cc1 (stereo not given) the Potency was inconclusive: 18.4 µM [inhibitor, single point].
In the case of CC(=O)n1nc(-c2cccc(C)c2)nc1SCC(=O)Nc1ccccc1, the Potency is reported as inconclusive: 13 µM [inhibitor, partial curve].
In the case of Cc1ccc(CNC(=O)C2CCCN(c3ncnc4c3nc3n4CCCCC3)C2)cc1 (stereo not given), the Potency is reported as active: 9.2 µM.
In the case of CCN1CC=C2C(C#N)=C(N)C(C#N)(C#N)[C@H](c3ccoc3)[C@H]2C1, the Potency is reported as inconclusive: 29.1 µM [inhibitor, single point].
With CCCN(Cc1cc2cc(C)ccc2[nH]c1=O)C(=O)c1ccccn1 the Potency was inconclusive: 25.9 µM [inhibitor, single point].
In the case of CCOc1ccc(S(=O)(=O)N(CC)CC(=O)NCc2cccnc2)cc1C, the Potency is reported as inconclusive: 29.1 µM [inhibitor, single point].
For Cc1cc(NC(=O)c2cc(-c3cccs3)on2)nn1Cc1ccc(Cl)cc1, the Potency was inconclusive: 25.9 µM [inhibitor, single point].
With COc1ccc(-c2nc(SCCOc3ccccc3Cl)n3[nH]c(=O)cc3n2)cc1 the Potency was inconclusive: 16.4 µM [inhibitor, partial curve].
